Measurements from PubChem BioAssay AID504832 (National Center for Advancing Translational Sciences (NCATS), 2011).
Hit rate of the full screen: of about 310,000 compounds, about 18,000 (5.8%) were called active. The shares of active, inactive and inconclusive entries below differ from those in the screen. Calls come from the whole dose curve; as a rule, active = well fitted inhibition curve with a large enough effect; inconclusive = small, poorly fitted or top-dose-only effect, or another doubt; inactive = no such curve, though single readings can be large or run the other way. Potencies of inconclusive entries are left out as doubtful fits.
% is set by controls: 0 for no effect and ±100 for the full control effect; potency is the fitted concentration of half-maximal effect; tags give direction and shape of the fitted curve.

Assay: Primary qHTS for delayed death inhibitors of the malarial parasite plastid, 48 hour incubation
Details: P. falciparum luciferase growth in erythrocytes; series mostly up to 28.7 µM; activity change, negative = inhibition: at the top concentration
Summary of the method: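 Growth was read as firefly luciferase luminescence after a 48 h, 37 C, 5% CO2 exposure of compounds to reporter-bearing P. falciparum cultures (0.1% parasitemia, 2% hematocrit final) in Albumax-supplemented RPMI 1640.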
For `CC(NC(=O)CN(c1ccc(Cl)cc1)S(C)(=O)=O)c1ccccc1` (stereo unspecified), the “activity change, negative = inhibition” value was inactive: 0%.
With `COc1ccc2c(=O)c(C(=O)NCCc3ccc(OC)c(OC)c3)c[nH]c2c1` the Potency was active: 10.4 µM.
For `O=C(C1CC(=O)N(c2ccc(F)cc2)C1)N1CCC(c2nc3ccccc3[nH]2)CC1` (stereo unspecified), the Potency was inconclusive [inhibitor, partial curve].
With `CN(C)CCN(CC1CCCN(Cc2ccccc2F)C1)C(=O)c1ccc(F)cc1` (stereo unspecified) the Potency was inconclusive [inhibitor, single point].
For `O=C(NCC(c1ccco1)N1CCN(c2ccc(F)cc2)CC1)OCc1ccccc1` (stereo unspecified), the Potency was inconclusive [inhibitor, single point].
With `O=C(Cc1ccc(Cl)cc1)Nc1ccc(S(=O)(=O)N2CCOCC2)cc1` the Potency was inconclusive [inhibitor, partial curve, poor fit].
For `COc1ccc(N2CCN(C(=O)CSc3nnc(CNc4ccccc4)o3)CC2)cc1`, the Potency was inconclusive [inhibitor, single point].
For `COc1ccc(OC)c(NC(=O)CC2C(=O)NCCN2C(=O)c2ccccc2)c1` (stereo unspecified), the “activity change, negative = inhibition” value was inactive: 19.2%.
In the case of `CN(CC(=O)NCC(=O)Nc1ccc(F)cc1)C1CCS(=O)(=O)C1` (stereo unspecified), the “activity change, negative = inhibition” value is reported as inactive: 5.79%.
In the case of `COc1ccc(Cn2c(-c3ccccc3)nc3c(c(=O)c4ccccc4n3C)c2=O)cc1`, the “activity change, negative = inhibition” value is reported as inactive: -14.8%.
For `CC(C)OCCCn1c(=O)c2ccccc2n2c(CCC(=O)N3CCN(c4ccccn4)CC3)nnc12`, the Potency was inconclusive [inhibitor, partial curve].
In the case of `CC(C)NC(=S)N/N=C/c1ccc(N2CCOCC2)cc1`, the “activity change, negative = inhibition” value is reported as inactive: 18.7%.
With `O=C(COc1ccccc1F)NCC(c1ccco1)N1CCCC1` (stereo unspecified) the Potency was inconclusive [inhibitor, single point].
In the case of `CC1CC(C)CN(c2ncnc3c2cnn3Cc2ccc(Cl)cc2)C1` (stereo unspecified), the Potency is reported as inconclusive [inhibitor, single point].
In the case of `N[C@@H](Cc1ccccc1)c1nnc(SC/C=C/c2ccccc2)o1`, the “activity change, negative = inhibition” value is reported as inactive: -2.32%.
In the case of `CN1CCc2c(sc(N)c2C(=O)c2ccc(Cl)cc2)C1`, the Potency is reported as inconclusive [inhibitor, partial curve, poor fit].
With `O=C(N/N=C/c1ccco1)c1cc(-c2ccccc2)nc2ccccc12` the “activity change, negative = inhibition” value was inactive: -5.99%.
For `CC1=C(C(=O)NCc2ccccn2)C2(CCC(C)CC2)OC1=O` (stereo unspecified), the Potency was inconclusive [inhibitor, full curve, poor fit].
For `CC(=O)NC(Cc1cnc[nH]1)C(=O)O` (stereo unspecified), the Potency was inconclusive [inhibitor, partial curve, poor fit].
With `C/C(=N\NC(=O)c1c(Br)cnn1C)c1ccc(NC(=O)c2ccc(F)cc2)cc1` the “activity change, negative = inhibition” value was inactive: 20%.
With `Cc1nccc2[nH]c(=O)c(C(=O)NC3CCCCC3C)cc12` (stereo unspecified) the Potency was inconclusive [inhibitor, partial curve, poor fit].
In the case of `CCCn1nnc(NC(=S)NC(=O)c2cccs2)n1`, the “activity change, negative = inhibition” value is reported as inactive: 39.6%.
With `CCN1C(=O)NC(=O)/C(=C\c2ccc(N3CCOCC3)cc2OC)C1=O` the “activity change, negative = inhibition” value was inactive: 24.3%.
With `COc1cccc(C2CC(=O)Nc3cc4c(cc32)OCCO4)c1OC(C)C` (stereo unspecified) the Potency was inconclusive [inhibitor, single point].
For `CC1CCCN(Cc2nc3c(c(=O)n(C)c(=O)n3C)n2CC(=O)c2ccccc2)C1` (stereo unspecified), the Potency was inconclusive [inhibitor, single point].
For `Cc1nc(C)c(C(=O)Nc2ccc(Oc3ccccc3)cc2)o1`, the “activity change, negative = inhibition” value was inactive: 77.7%.
For `COc1ccc(C(=O)c2ccccc2O)c(O)c1`, the Potency was active: 4.15 µM.
For `CCOC(=O)C(C(=O)OCC)C1CCS(=O)(=O)C1` (stereo unspecified), the Potency was inconclusive [inhibitor, single point].
With `Cc1nc(C)c(C(=O)NCc2ccccc2Cl)o1` the Potency was inconclusive [inhibitor, partial curve, poor fit].
In the case of `O=C(c1ccc(C(F)(F)F)cc1)N1CCN(c2ccc(N3CCOCC3)nn2)CC1`, the “activity change, negative = inhibition” value is reported as inactive: -8.39%.
With `Cc1cccc(CCNC(=O)c2cccc(NC3=NC4CS(=O)(=O)CC4S3)c2)c1` (stereo unspecified) the “activity change, negative = inhibition” value was inactive: 2.06%.
In the case of `CCOc1ccc(NC(=O)CN(C)C(=O)/C=C/c2ccc(S(=O)(=O)N3CCCCCC3)cc2)cc1OCC`, the Potency is reported as inconclusive [inhibitor, partial curve, poor fit].
With `CC1CCN(C(=O)c2ccccc2NC(=O)c2cccc(S(=O)(=O)N3CCOCC3)c2)CC1` the Potency was inconclusive [inhibitor, partial curve].
For `N[C@@H](Cc1ccccc1)C(=O)N1CCC(C(=O)NCC(=O)Nc2ccc(F)cc2)CC1`, the Potency was inconclusive [inhibitor, single point].
With `CC1(c2ccc(O)cc2)NC(=O)N(c2ccccc2)N1` (stereo unspecified) the Potency was inconclusive [inhibitor, single point].
For `Cc1ccc2nc(Cl)c(C3CC(c4ccco4)=NN3S(C)(=O)=O)cc2c1` (stereo unspecified), the Potency was inconclusive [inhibitor, full curve].
With `CC(C)Oc1ccc(S(=O)(=O)N2CCOCC2)cc1NC(=O)C1CCCCC1` the Potency was inconclusive [inhibitor, single point].
With `O=C(/C=C/c1ccccc1)N1CCCN(C(=O)/C=C/c2ccccc2)CC1` the Potency was inconclusive [inhibitor, single point].
In the case of `Cc1noc(NC(=O)c2ccc(Cl)c(Cl)c2)c1Cl`, the Potency is reported as inconclusive [inhibitor, single point].
For `O=C(Nc1ccc2c(c1)OCCO2)c1cccnc1Oc1ccc(Cl)cc1`, the “activity change, negative = inhibition” value was inactive: -4.35%.
For `Cn1c(=O)n(CCOc2ccccc2Cl)c2ccccc21`, the Potency was inconclusive [inhibitor, full curve, poor fit].
In the case of `CC(C)(C)[C@H]1C=C(C(=O)NC2CC2)O[C@@H](OCc2ccc(CO)cc2)C1`, the Potency is reported as inconclusive [inhibitor, partial curve].
For `Clc1ccc(C2=Nn3c(nnc3-c3n[nH]c4c3CCC4)SC2)cc1Cl`, the Potency was active: 11.7 µM.
In the case of `CC(=O)Nc1ccc(S(=O)(=O)Nc2cccc(-c3cn4cccnc4n3)c2)cc1`, the Potency is reported as inconclusive [inhibitor, single point].
With `Cc1cc(S(=O)(=O)N2CCOCC2)ccc1OCC(=O)Nc1cccc(F)c1` the Potency was inconclusive [inhibitor, partial curve, poor fit].
With `CC(C)S(=O)(=O)c1csc(C(=O)NNC(=O)Nc2ccccc2)c1Cl` the “activity change, negative = inhibition” value was inactive: 31.6%.
For `CSCc1ccc(C(=O)NCC(c2cccs2)N2CCOCC2)cc1` (stereo unspecified), the Potency was inconclusive [inhibitor, single point].
For `COc1ccc(COC(=O)C2CCN(S(=O)(=O)c3ccc(OC)c(OC)c3)CC2)cc1`, the Potency was inconclusive [inhibitor, single point].
With `CN1CCN(c2ccc(NC(=O)c3cccc(OCc4ccccc4)c3)cc2)CC1` the Potency was active: 10.4 µM.
In the case of `CC1=NN(C(N)=S)C(=O)C1N=Nc1ccc(F)cc1` (stereo unspecified), the Potency is reported as active: 1.85 µM.
With `Nc1nc(N(Cc2ccccc2)Cc2ccccc2)nc(C(F)(F)F)n1` the Potency was inconclusive [inhibitor, single point].
For `N#Cc1c(N)nc2c(c1-c1ccc3c(c1)OCO3)CCCCCC2`, the Potency was inconclusive [inhibitor, partial curve, poor fit].
For `CC(C)(C)OC(=O)NC(Cc1ccccc1)C(=O)N1CCCC1C(=O)O` (stereo unspecified), the “activity change, negative = inhibition” value was inactive: -5.17%.
In the case of `COc1cccc([C@@H]2CC=C(C(=O)O)[C@H](c3ccccc3F)N2S(=O)(=O)c2ccc(C)cc2)c1`, the Potency is reported as inconclusive [inhibitor, single point].
In the case of `CCC1S/C(=N/N=C/c2ccco2)N(Cc2ccc(F)cc2)C1=O` (stereo unspecified), the Potency is reported as inconclusive [inhibitor, single point].
In the case of `CSc1nsc(SCC(=O)NC2CCCCC2)n1`, the “activity change, negative = inhibition” value is reported as inactive: 19.1%.
For `COC(=O)CNc1nc(Cl)nc(NC2CCCCC2)n1`, the “activity change, negative = inhibition” value was inactive: 45%.
With `CN1CCc2c(OCC(=O)NC3CCCCC3)cccc2C1=O` the Potency was inconclusive [inhibitor, partial curve, poor fit].
With `C=CCN(CC=C)C(=S)NC(=O)Cc1cccc2ccccc12` the Potency was inconclusive [inhibitor, partial curve].
For `NC(=O)c1nn(-c2ccccc2)nc1NC(=O)CN1CCCC1`, the “activity change, negative = inhibition” value was inactive: -0.677%.
With `COc1ccc(-c2nn(-c3ccccc3)cc2C(=O)N(C)CC(=O)Nc2cccc(F)c2)cc1` the Potency was inconclusive [inhibitor, single point].
In the case of `CCN(CC)S(=O)(=O)c1cccc(C(=O)N/N=C/c2ccc(N3CCOCC3)cc2)c1`, the “activity change, negative = inhibition” value is reported as inactive: -20.6%.
With `CC1(C)CC(=O)C2=C(C1)O[C@@]1(c3ccsc3)Cc3cc(C#N)ccc3C2O1` the Potency was active: 1.51 µM.
In the case of `CC1C2CCC3C4CC=C5CC(N(C)C)CC[C@@]5(C)C4CC[C@@]32CN1C` (stereo partly specified), the Potency is reported as active: 15.1 µM.
With `Cc1ccc(S(=O)(=O)NCc2ccc(C(=O)N3CCN(c4ccccc4)CC3)cc2)cc1` the Potency was inconclusive [inhibitor, single point].
With `Nc1nc(-c2ccc3ccccc3c2)cs1` the “activity change, negative = inhibition” value was inactive: 340%.
In the case of `CSc1nnc(-c2ccccc2SC)o1`, the Potency is reported as inconclusive [inhibitor, single point].
In the case of `CC1C(=O)N2CCCc3cc(NC(=O)C4CCCCC4)cc1c32` (stereo unspecified), the Potency is reported as inconclusive [inhibitor, single point].
With `c1ccc(CSC2=NNC(c3ccccn3)S2)cc1` (stereo unspecified) the Potency was active: 2.08 µM.
With `COc1ccc(CN(C(=O)Cc2cccs2)C(C(=O)NC2CCCC2)c2ccncc2)cc1` (stereo unspecified) the Potency was inconclusive [inhibitor, partial curve, poor fit].
In the case of `COc1ccccc1Oc1cc(C#N)c(C#N)cc1-n1nnc2ccccc21`, the Potency is reported as active: 9.28 µM.
